Measurements published in publication PMC4336329 (PLoS ONE, 2015).
In all, about 310,000 compounds went through this assay and about 14,000 (4.5%) showed an effect of 50% or more. Effects have a minus sign here. This is one part of the list.

Molecular target: human ether-à-go-go-related gene (hERG) potassium channel (human, UniProt Q12809)
Assay: primary screen, population patch clamp on CHO cells stably expressing hERG
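Note: peak tail current of the secondary pulse compared with the same well before compound.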

human ether-à-go-go-related gene (hERG) potassium channel, sequence (Q12809 whole entry, looked up): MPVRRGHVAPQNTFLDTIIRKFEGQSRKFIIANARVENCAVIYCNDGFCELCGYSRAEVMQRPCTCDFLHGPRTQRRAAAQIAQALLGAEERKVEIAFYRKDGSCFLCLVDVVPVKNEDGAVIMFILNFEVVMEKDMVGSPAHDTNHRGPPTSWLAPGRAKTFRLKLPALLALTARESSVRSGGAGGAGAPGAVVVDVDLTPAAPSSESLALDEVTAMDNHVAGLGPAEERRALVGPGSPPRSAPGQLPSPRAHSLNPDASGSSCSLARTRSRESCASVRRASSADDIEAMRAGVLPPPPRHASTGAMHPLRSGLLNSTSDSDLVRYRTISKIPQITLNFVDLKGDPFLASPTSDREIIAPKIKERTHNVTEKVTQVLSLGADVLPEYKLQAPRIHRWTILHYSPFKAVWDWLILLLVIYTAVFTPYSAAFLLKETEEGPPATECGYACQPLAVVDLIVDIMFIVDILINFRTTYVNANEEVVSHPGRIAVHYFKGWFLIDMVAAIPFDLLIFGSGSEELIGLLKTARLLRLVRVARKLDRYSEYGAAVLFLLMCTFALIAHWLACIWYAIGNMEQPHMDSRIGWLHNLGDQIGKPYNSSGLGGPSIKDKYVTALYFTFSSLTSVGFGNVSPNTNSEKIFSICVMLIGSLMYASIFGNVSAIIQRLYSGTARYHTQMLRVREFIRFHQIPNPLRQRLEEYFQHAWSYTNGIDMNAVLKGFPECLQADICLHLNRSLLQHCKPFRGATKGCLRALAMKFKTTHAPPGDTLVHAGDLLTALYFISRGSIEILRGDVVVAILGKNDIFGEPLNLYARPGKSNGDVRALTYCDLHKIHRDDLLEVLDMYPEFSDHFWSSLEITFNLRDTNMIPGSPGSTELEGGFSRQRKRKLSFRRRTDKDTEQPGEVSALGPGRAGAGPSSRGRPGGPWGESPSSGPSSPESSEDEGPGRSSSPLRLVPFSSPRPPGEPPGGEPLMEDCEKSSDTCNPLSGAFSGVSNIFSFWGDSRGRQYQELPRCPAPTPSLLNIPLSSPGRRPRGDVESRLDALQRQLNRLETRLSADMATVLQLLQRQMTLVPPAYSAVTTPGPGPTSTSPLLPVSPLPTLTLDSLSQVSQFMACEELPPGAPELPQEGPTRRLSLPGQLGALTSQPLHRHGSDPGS

| SMILES | hERG current change (%, negative = inhibition) at 10uM [%] |
| --- | --- |
| Cc1cc(C)c(C(=O)COc2cccnc2[N+](=O)[O-])cc1C | -4.15 |
| COCCCNC(=O)CC1Oc2ccccc2NC1=O (centres unmarked) | 3.05 |
| Cc1ccc(C)c(N2CCN(C(=O)CNS(=O)(=O)c3cccs3)CC2)c1 | -1.3 |
| COc1cc(C(=O)O[C@H]2C/C(C)=C/CC[C@@]3(C)O[C@@H]3[C@H](O)[C@@H]2C(C)C)cc(OC)c1OC | 6.22 |
| O=C(Nc1ccc(Cl)c(Cl)c1)N1CC=CCC1 | 2.3 |
| Cc1c(C(=O)NCCN2C(=O)S/C(=C\c3cccnc3)C2=O)cccc1[N+](=O)[O-] | -45.1 |
| CCN(CC)C(=O)COc1ccc2oc(C)c(C(=O)OC(C)C)c2c1 | -4.12 |
| COC(=O)C1=C(C(=O)OC)[C@@H]2N(C)c3ccc(OC)cc3[C@@]23C[C@@H](C(=O)OC)N(S(=O)(=O)c2ccc([N+](=O)[O-])cc2)C3=N1 | 2.57 |
| Cc1cc(C)cc(-n2ccnc2SCC(=O)Nc2ccc3c(c2)OCCO3)c1 | -14.2 |
| COc1ccccc1N1CCN(CCCCOc2cccc3ccccc23)CC1.Cl | -32.8 |
| CCN(CC)S(=O)(=O)c1ccc(NN)nc1 | 13.4 |
| CNC(=O)CCSc1ccc(C)cc1 | 24.8 |
| CN=C(C)/C(C(=O)OC)=C(/O)c1ccccc1F | 3.33 |
| O=C(c1ccco1)N1CCN(C(=O)c2cnn3c2NC(c2cccs2)CC3C(F)(F)F)CC1 (centres unmarked) | -14 |
| CCOC(=O)CN(C(=O)COc1nc(C)cc(C)c1C#N)c1ccc(F)cc1 | -44.8 |
| CC(C)(C)OC(=O)[C@H](Cc1ccccc1)NC(=O)c1[nH]cnc1C(=O)Nc1ccc(Cl)cc1 | 12.7 |
| O=C(NC(=S)Nc1cccc(Cl)c1)c1cncc(Br)c1 | 10.5 |
| COc1ccc(NC(=O)CC2C(=O)N(c3ccc(OC)cc3)C(=S)N2NC(=O)c2cccc(F)c2)cc1 (centres unmarked) | 4.58 |
| CC(=O)Nc1ccc(NC(=O)CSc2nc3c([nH]c4ccccc43)c(=O)n2-c2ccccc2F)cc1 | 16.8 |
| CCn1c(SCCOc2ccc(OC)cc2)nnc1C(CO)NC(=O)c1ccc(OC)cc1 (centres unmarked) | -14.8 |
| O=[N+]([O-])c1cc(S(=O)(=O)N2CCCC2)ccc1OCc1ccccc1 | 12.1 |
| CCOc1ccccc1NC(=O)N1CCCN(c2ncccc2C#N)CC1 | -25.9 |

| SMILES | hERG current change (%, negative = inhibition) at 10uM [%] |
| --- | --- |
| CCOc1ccc(-c2nnc(N3CCOCC3)c3ccccc23)cc1 | -69.6 |
| Cc1ccc(-c2nc(NC(=O)c3nn(C)cc3[N+](=O)[O-])sc2C)cc1C | -9.15 |
| O=C(O)c1cccc(NC(=S)NC(=O)c2ccncc2)c1 | -2.75 |
| Nc1nc(N)c(Cc2ccc(Cl)cc2Cl)c(N)n1 | -3.41 |
| CC(=O)Nc1ccc(S(=O)(=O)Nc2nnc(Cc3ccc(Cl)cc3)s2)cc1 | 20 |
| Cc1nn(C)c(C)c1CCC(=O)N1CCCC(N2CCN(c3ccc(F)cc3)CC2)C1 (centres unmarked) | -12.5 |
| O=C(CSc1nnc(-c2ccccn2)o1)Nc1ccccc1F | 10.1 |
| CC(C)N1C(=S)SC(C)(C)C1n1oc(=O)n(-c2cccc(Cl)c2)c1=O (centres unmarked) | 15 |
| C=CC1=C(C(=O)O)N2C(=O)C(NC(=O)Cc3ccccc3)C2SC1 (centres unmarked) | 10.6 |
| Cc1noc(C)c1C(=O)Nc1sc(C)c(C)c1C#N | 15.6 |
| CN1C(=O)NC(=O)/C(=C/c2ccc([N+](=O)[O-])s2)C1=O | -0.751 |
| CCCCn1nc2cc(C(=O)NCc3ccc4c(c3)OCO4)ccc2c1OCC | -15.5 |
| O=C(CCc1ccc(S(=O)(=O)N2CCOCC2)cc1)Nc1nc(COc2ccccc2)cs1 | 5.78 |
| CCCC(=O)Nc1cccc(NC(=O)c2ccccc2Br)c1 | -9.19 |
| CC(C)c1ccc(/C=C2\SC(=S)N(CCC(=O)N3CCCCC3CCO)C2=O)cc1 (centres unmarked) | 20.3 |
| CN(C)c1nc(NCc2ccccc2)nc(SCC(=O)Nc2ccccc2Cl)n1 | -13.4 |
| C/C(=N\Nc1ccc2nncn2n1)c1ccccn1 | 18.6 |
| Cc1cc(C(=O)OCC(=O)NCc2ccccc2)c(C)o1 | 6 |
| CCOC(=O)CN(C(=O)COc1nc(-c2ccccc2)cc(C)c1C#N)c1ccc(F)cc1 | 1.18 |
| CCCc1cc(=O)[nH]c2nnc(SCC(=O)Nc3cc(C)on3)n12 | 4.97 |
| O=[N+]([O-])c1ccccc1S(=O)(=O)N(CC(O)CN1CCCCC1)c1ccccc1 (centres unmarked) | -29.9 |
| CCOC(=O)c1ccc2[nH]c3c(c2c1)CCCCC3=O | 9.27 |

| SMILES | hERG current change (%, negative = inhibition) at 10uM [%] |
| --- | --- |
| COc1ccc(CC2(CO)CCN(Cc3cccnc3)CC2)cc1 | -40.3 |
| Cc1cccn2c(=O)c(/C=C3\SC(=S)NC3=O)c(NCCCN3CCOCC3)nc12 | 4.26 |
| O=S(=O)(c1ccc(F)cc1)N1CC2CCCN2c2ccc(C(F)(F)F)cc21 (centres unmarked) | 15.1 |
| CCOc1ccc(C(=O)N(Cc2ccccc2)c2cccc(C)c2)cc1OC | -11.5 |
| CN(CC1CCCN(CCc2cccc(C(F)(F)F)c2)C1)C(=O)c1ccc2nc[nH]c2c1 (centres unmarked) | -33.1 |
| COc1c(C(C)C)oc2cc3oc(=O)ccc3cc12 | -17.8 |
| CCCc1cc(C(=O)Cc2ccc(F)cc2)c(O)cc1O | -7.25 |
| CC(=O)c1cccc(S(=O)(=O)N2CCC(C(=O)O)CC2)c1 | 23.2 |
| CCOC(=O)CCn1c(CC(=O)OCC)nc2ccccc21.Cl.O | -39.3 |
| CCC(=O)c1c[nH]c(C(=O)NCc2cccc(C(F)(F)F)c2)c1 | 12.2 |
| Cc1ccc(NC(=O)c2c3c(nc4ccccc24)CCC3)cc1S(=O)(=O)N(C)C | 11.5 |
| CCN(CC)c1ccc(C(=O)Nn2c(C)nc3ccccc3c2=O)cc1 | 14 |
| Cc1cccc(C)c1NC(=O)CN(C)C(=O)c1ccccc1Sc1ccccc1C#N | -4.76 |
| O=C(Nc1ccccc1)N1CCN(c2cccc(C(F)(F)F)c2)CC1 | -4.95 |
| O=C(Nc1ccc(C(F)(F)F)cc1)c1ccc2ncsc2c1 | 0.541 |
| Cc1ccc(F)cc1NC(=O)CN1C(=O)NC(C)(c2ccc3c(c2)OCCO3)C1=O (centres unmarked) | -0.936 |
| O=C(Nc1c(Cl)ccc2nsnc12)c1cccnc1 | 9.41 |
| O=C(OCCc1cc2ccccc2c(=O)o1)c1ccc(C(F)(F)F)cc1 | 10.9 |
| Cc1ccc2c(c1)CCCN2S(=O)(=O)c1cccc(C(=O)Nc2ccccc2C(=O)O)c1 | -14.7 |
| O=C(NCc1ccc(F)cc1)C1CCN(c2cnccn2)CC1 | -64.9 |
| Cn1cccc1/C=N/NC(=O)C12CC3CC(CC(C3)C1)C2 | 4.99 |
| COc1cc2c(cc1OC)CC[N+](C)=C2.[I-] | 15.4 |

| SMILES | hERG current change (%, negative = inhibition) at 10uM [%] |
| --- | --- |
| CCOC(=O)N1CCc2c(sc(NC(=O)C3=COCCO3)c2C(N)=O)C1 | 4.44 |
| CN(CCN1CCOCC1)Cc1nc(-c2cccs2)no1 | 3.49 |
| CCCNC(=O)Cc1c(O)c2ccccc2[nH]c1=O | 19 |
| O=C(CSc1nc2ccccc2s1)N1N=C(c2cccs2)CC1c1ccc(F)cc1 (centres unmarked) | 0.782 |
| O=C(NCc1ccc2c(c1)OCO2)c1ccc(CS(=O)Cc2ccc(Cl)cc2)o1 (centres unmarked) | -28.8 |
| Cc1ccc2nc(NC(=S)NC(=O)c3cccs3)sc2c1 | 7.89 |
| CN(C)c1ccc(P(=O)(OC2CCCCC2)C(O)c2cccnc2)cc1 (centres unmarked) | -4.2 |
| CCCCn1c(SCC(=O)Nc2ccc(C)c(S(=O)(=O)N3CCOCC3)c2)nnc1C(CC)N(C)C (centres unmarked) | -14.9 |
| CCc1ccc(OCc2cnc(Cl)s2)cc1 | 15.4 |
| O=c1[nH][nH]c(C(F)(F)F)c1C=NCc1cccs1 | 14.7 |
| Cc1ccc(-c2cc(C(=O)N3CCN(c4ccccc4O)CC3)c3ccccc3n2)cc1 | -1.9 |
| CCOC(=O)N1CCN(C(=O)C2CCC(=O)N(Cc3cccc(C(F)(F)F)c3)C2)CC1 (centres unmarked) | -11.1 |
| CCOC(=O)Cn1c(Br)nc2c1c(=O)[nH]c(=O)n2C | -58 |
| O=C(CCN1C(=O)C2C3CCC(C3)C2C1=O)Nc1ccccc1Cl (centres unmarked) | -9.72 |
| CCOCCCNC(=O)C(NC(=O)C1CCC(=O)N1)c1ccc(C)cc1 (centres unmarked) | 1.88 |
| COc1ccc(C2C(C#N)=C(N)N(c3sc4c(c3C#N)CCCC4)C3=C2C(=O)CC(C)(C)C3)cc1OC (centres unmarked) | 10.3 |
| COc1ccc(C2c3c(ncn(CCN4CCOCC4)c3=N)Oc3ccc4ccccc4c32)cc1 (centres unmarked) | -47.2 |
| CC(=O)c1cccc(NC(=O)CSC(=O)c2ccccc2)c1 | 12.4 |
| CCOC(=O)c1c(NC(=O)CN2C(=O)NC3(CCC(C)CC3)C2=O)sc(C)c1CC (centres unmarked) | 4.52 |
| O=C(NC(NC(=S)Nc1ccccc1C(=O)O)C(Cl)(Cl)Cl)c1ccccc1 (centres unmarked) | 9.78 |
